Measurements: article PMC4336329 (PLoS ONE, 2015)
About 2,200 (0.71%) of roughly 310,000 compounds showed an effect of 50% or more. The effect is printed as a negative number. This is one part of the list. Where a SMILES comes first, the peptide text is derived from it. The star is where a group is joined. Boc = CC(C)(C)OC(=O)*

Each molecule was assayed against human ether-à-go-go-related gene (hERG) potassium channel (human, UniProt Q12809) (assay: primary screen, population patch clamp on CHO cells stably expressing hERG).
human ether-à-go-go-related gene (hERG) potassium channel, sequence (Q12809 whole entry, looked up): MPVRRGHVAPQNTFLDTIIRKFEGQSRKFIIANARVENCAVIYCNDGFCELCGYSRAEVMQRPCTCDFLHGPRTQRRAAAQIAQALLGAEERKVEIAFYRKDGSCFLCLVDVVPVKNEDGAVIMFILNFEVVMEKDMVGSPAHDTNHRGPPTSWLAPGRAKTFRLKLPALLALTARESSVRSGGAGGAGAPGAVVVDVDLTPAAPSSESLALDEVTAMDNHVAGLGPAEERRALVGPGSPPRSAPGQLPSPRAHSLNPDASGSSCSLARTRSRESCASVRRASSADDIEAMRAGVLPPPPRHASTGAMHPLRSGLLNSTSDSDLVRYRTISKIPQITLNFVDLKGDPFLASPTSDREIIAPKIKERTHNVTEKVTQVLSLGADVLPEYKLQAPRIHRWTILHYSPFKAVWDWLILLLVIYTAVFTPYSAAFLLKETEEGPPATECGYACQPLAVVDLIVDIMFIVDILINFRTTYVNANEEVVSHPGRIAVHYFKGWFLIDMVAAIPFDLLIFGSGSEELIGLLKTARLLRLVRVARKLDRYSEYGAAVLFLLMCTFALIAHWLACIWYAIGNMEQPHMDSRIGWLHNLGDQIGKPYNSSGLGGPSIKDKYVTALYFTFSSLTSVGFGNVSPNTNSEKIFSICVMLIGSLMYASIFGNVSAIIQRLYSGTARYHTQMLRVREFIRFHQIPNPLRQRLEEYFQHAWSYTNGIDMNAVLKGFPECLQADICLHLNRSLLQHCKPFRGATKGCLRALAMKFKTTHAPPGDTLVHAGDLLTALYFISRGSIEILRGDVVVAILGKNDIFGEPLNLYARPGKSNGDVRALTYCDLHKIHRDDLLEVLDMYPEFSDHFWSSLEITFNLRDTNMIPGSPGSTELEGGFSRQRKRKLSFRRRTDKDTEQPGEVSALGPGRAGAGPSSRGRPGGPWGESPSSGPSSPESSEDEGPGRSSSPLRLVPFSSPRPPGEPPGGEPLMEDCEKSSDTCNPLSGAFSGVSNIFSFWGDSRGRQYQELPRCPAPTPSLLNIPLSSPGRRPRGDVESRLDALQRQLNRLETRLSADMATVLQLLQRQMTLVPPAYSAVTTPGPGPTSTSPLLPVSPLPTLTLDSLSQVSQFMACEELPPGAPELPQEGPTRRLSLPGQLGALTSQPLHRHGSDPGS

First: CCOC(=O)C(Cc1ccc(O)cc1)NC(=O)CNC(=O)C1CCCN1C(=O)OC(C)(C)C (stereo not drawn) (Boc-Pro-Gly-Tyr-OEt; configuration not given here)
Second: Cc1ccc(NC(=O)CS(=O)CC(=O)NC2CCN(Cc3ccccc3)CC2)c(C)c1 (centres unmarked)
The “hERG current change (%, negative = inhibition) at 1uM” value of the first is higher: 13.5% for the first, 6.57% for the second.

Compared with `Cc1ccc(-n2c(SCC(=O)NCC3CCCO3)nc3c(c2=O)SCC3)cc1` (centres unmarked), `Cc1ccc(NCc2nnc(SCC(=O)Nc3ccccc3)n2CC2CCCO2)c(C)c1` (centres unmarked) is higher in “hERG current change (%, negative = inhibition) at 1uM” value: 2.53% for the first, 10.6% for the second.

First: CCOCCCNC(=O)c1[nH]c(C)c(C(C)=O)c1C
Second: CCOC(=O)n1c(=O)n(Cc2cccc(C)c2)c2ccccc21
The “hERG current change (%, negative = inhibition) at 1uM” value of the first is higher: 14.4% for the first, 10.6% for the second.

Going from `C/C(=N\NC(=O)C(N)=O)c1ccc(NC(=O)c2cccs2)cc1` to `O=C(COC(=O)CCC(=O)c1ccc(F)cc1)Nc1ccc2[nH]c(=O)[nH]c2c1`, the “hERG current change (%, negative = inhibition) at 1uM” value falls from 18.4% to 1.6%.

Going from `C=CCSc1nc2sc3c(c2c(=O)[nH]1)CC(C)(CC)OC3` (centres unmarked) to `CC(=O)Nc1nnc(SCC(=O)Nc2ccc3c(c2)OCCO3)s1`, the “hERG current change (%, negative = inhibition) at 1uM” value falls from 15.4% to 4%.

Going from `COC(=O)[C@@H]1C[C@H]2CC[C@H](O)C[C@H]2N1Cc1ccc(C(F)(F)F)cc1` to `O=c1c2ccccc2n2c(-c3ccc(C(F)(F)F)cc3)nnc2n1Cc1ccccc1`, the “hERG current change (%, negative = inhibition) at 1uM” value rises from 6.03% to 6.98%.

Going from `O=C(Cc1ccccc1)N1CCc2[nH]nc(-c3ccccc3)c2C1` to `O=S(=O)(Nc1ccc2c(c1)nc1n2CCN(Cc2ccccc2)C1)c1ccc(F)cc1`, the “hERG current change (%, negative = inhibition) at 1uM” value falls from 12.6% to -18.3%.

Going from `Cc1ccc(NC(=O)COC(=O)Cc2csc(-c3ccc(Cl)cc3)n2)cc1C` to `CCn1cc(C(=O)Nc2ccc3c(c2)OCCO3)c2cc(OC)c(OC)cc2c1=O`, the “hERG current change (%, negative = inhibition) at 1uM” value rises from 3.33% to 7.8%.

Compared with `CCOC(=O)c1nnn(-c2nn3nnnc3c3ccccc23)c1C`, `COc1cccc(/C=N/n2nnnc2N)c1OCc1ccccc1Cl` is lower in “hERG current change (%, negative = inhibition) at 1uM” value: 8.18% for the first, 6.8% for the second.

First: CS(=O)(=O)N1CCN(C/C=C/c2ccccc2)CC1
Second: O=C(Nc1ccc([N+](=O)[O-])cc1)c1ccc(S(=O)(=O)N2CCCC2)cc1
The “hERG current change (%, negative = inhibition) at 1uM” value of the first is lower: 13.3% for the first, 15.2% for the second.

Compared with `CCOc1cc(/C=N/NC(=O)c2cccnc2)ccc1OC(=O)c1ccco1`, `O=C(CCn1c(=O)c2ccccc2n(Cc2ccccc2)c1=O)NCc1ccc2c(c1)OCO2` is lower in “hERG current change (%, negative = inhibition) at 1uM” value: 11.1% for the first, 1.61% for the second.

For `Cc1ccc(Nc2nnc(SCC3CCCCO3)s2)cc1` (centres unmarked), the “hERG current change (%, negative = inhibition) at 1uM” value was 6.78%.
